Out of some 310,000 compounds screened, about 14,000 (4.5%) showed an effect of 50% or more. The effect is printed as a negative number. The list shows a part of the results.
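Note: peak tail current of the secondary pulse compared with the same well before compound.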

The test deals with human ether-à-go-go-related gene (hERG) potassium channel (human, UniProt Q12809). The test can be described thus: primary screen, population patch clamp on CHO cells stably expressing hERG.
human ether-à-go-go-related gene (hERG) potassium channel, sequence (Q12809 whole entry, looked up): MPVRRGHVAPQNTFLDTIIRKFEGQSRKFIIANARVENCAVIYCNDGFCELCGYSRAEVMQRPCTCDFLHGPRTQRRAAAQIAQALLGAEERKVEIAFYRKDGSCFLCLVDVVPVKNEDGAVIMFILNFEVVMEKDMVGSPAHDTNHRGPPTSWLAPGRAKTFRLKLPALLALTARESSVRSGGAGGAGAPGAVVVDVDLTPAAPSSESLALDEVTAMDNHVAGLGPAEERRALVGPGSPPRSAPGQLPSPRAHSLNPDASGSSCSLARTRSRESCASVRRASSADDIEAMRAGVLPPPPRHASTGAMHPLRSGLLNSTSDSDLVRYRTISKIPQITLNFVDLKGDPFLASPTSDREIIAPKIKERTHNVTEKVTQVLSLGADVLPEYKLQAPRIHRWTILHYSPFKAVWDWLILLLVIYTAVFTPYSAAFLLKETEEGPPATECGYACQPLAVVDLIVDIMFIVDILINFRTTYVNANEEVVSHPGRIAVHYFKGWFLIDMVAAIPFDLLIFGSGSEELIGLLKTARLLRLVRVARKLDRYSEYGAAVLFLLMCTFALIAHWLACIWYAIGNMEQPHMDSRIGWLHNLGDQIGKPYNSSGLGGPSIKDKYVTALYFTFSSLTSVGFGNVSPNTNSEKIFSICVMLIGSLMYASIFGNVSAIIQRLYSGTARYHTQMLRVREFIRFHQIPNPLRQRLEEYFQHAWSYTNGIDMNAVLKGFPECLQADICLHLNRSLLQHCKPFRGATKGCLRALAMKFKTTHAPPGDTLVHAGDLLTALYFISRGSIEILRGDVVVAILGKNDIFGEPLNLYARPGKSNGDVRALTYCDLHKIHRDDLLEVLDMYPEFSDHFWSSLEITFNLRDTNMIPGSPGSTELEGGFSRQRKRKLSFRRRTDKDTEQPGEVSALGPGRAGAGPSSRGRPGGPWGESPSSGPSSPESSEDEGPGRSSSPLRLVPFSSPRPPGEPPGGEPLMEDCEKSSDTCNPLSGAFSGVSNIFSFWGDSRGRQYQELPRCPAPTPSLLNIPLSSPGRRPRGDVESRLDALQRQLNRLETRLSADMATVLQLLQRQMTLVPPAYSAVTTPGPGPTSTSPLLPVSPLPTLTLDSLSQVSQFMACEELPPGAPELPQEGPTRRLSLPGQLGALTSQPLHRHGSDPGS
For the compound `CC12CCC(=O)N1C(C(=O)Nc1nc(-c3ccccc3Cl)cs1)CS2` (stereo not drawn), the “hERG current change (%, negative = inhibition) at 10uM” value is on record as -6.16%.

Take `Cn1c(C(=O)NCCc2ccsc2)cc2c(=O)n(C)c3ccccc3c21`: the “hERG current change (%, negative = inhibition) at 10uM” value was -7.88%.

With `COc1ccc(-n2c(C)cc(C(=O)CN3C(=O)NC4(CCc5ccccc54)C3=O)c2C)cc1` (stereo not drawn), the “hERG current change (%, negative = inhibition) at 10uM” value was -6.91%.

Consider `Cc1cc(Nc2cccc(F)c2)nc(N2CCOCC2)n1`, for which the “hERG current change (%, negative = inhibition) at 10uM” value was -17%.

With `O=C1NC(=O)C(=Cc2ccc(N3CCOCC3)o2)C(=O)N1`, the “hERG current change (%, negative = inhibition) at 10uM” value worked out at 26.7%.

For `CCn1cc(C(=O)NCc2ccco2)c(=O)c2cc(S(=O)(=O)N3CCC(C)CC3)ccc21`, the “hERG current change (%, negative = inhibition) at 10uM” value is -36.5%.

For the compound `O=C1C(Cl)=C(N2CCCCCC2)C(=O)N1c1ccc(Cl)cc1`, the “hERG current change (%, negative = inhibition) at 10uM” value amounted to 11.7%.

In the case of `COC(=O)C(Cc1ccccc1)NC(=O)CNC(=O)c1ccc(Br)o1` (stereo not drawn), the “hERG current change (%, negative = inhibition) at 10uM” value was 3.41%.

Take `O=C(/C=C/c1ccc(F)cc1)N1CCN(S(=O)(=O)/C=C/c2ccccc2)CC1`: the “hERG current change (%, negative = inhibition) at 10uM” value amounted to 14.2%.

For the compound `CC(=O)NC(Cc1ccccc1)C(=O)NC1CCN(C(=O)NC2CCCCC2)CC1` (stereo not drawn), the “hERG current change (%, negative = inhibition) at 10uM” value was -0.881%.

`COc1cc(NC(=O)Cc2c(C(=O)O)n(C)c3ccccc23)cc(OC)c1OC`: the “hERG current change (%, negative = inhibition) at 10uM” value stood at 35%.

`O=[N+]([O-])c1ccc(N=NN(CCO)CCO)cc1`: the “hERG current change (%, negative = inhibition) at 10uM” value is given as -75.3%.

`COc1ccc2oc(=O)c(C(=O)Nc3ccccc3O)cc2c1`: the “hERG current change (%, negative = inhibition) at 10uM” value was found to be 8.79%.

As to `CCN(CC)CCCNC(=O)CNC(=O)c1nn(-c2ccc(OC)cc2)c(=O)c2ccccc12`, the “hERG current change (%, negative = inhibition) at 10uM” value turned out to be 23.8%.

As to `Cc1cc(C)nc(SCCN(C)C)n1.O=C(O)CCC(=O)O`, the “hERG current change (%, negative = inhibition) at 10uM” value worked out at 17.6%.

As for `CC(=O)Nc1ccc2c(c1)N(C(=O)CN(C)C)c1ccccc1CC2`, the “hERG current change (%, negative = inhibition) at 10uM” value turned out to be 9.22%.

Regarding `COC(=O)Cc1ccc(OCc2ccc(Cl)nc2)cc1`, the “hERG current change (%, negative = inhibition) at 10uM” value is recorded as -5.23%.

For the compound `COc1ccc(S(=O)(=O)NCc2ccc(C(=O)N(C)Cc3ccco3)cc2)cc1`, the “hERG current change (%, negative = inhibition) at 10uM” value is reported as -19.1%.

Regarding `CCCN=C1CC(C)(C)CC(=O)/C1=C(/O)CCCN1C(=O)c2ccccc2C1=O`, the “hERG current change (%, negative = inhibition) at 10uM” value is reported as -11.4%.

In the case of `O=C(Cn1c(CO)nc2ccccc21)NC1CCCCCC1`, the “hERG current change (%, negative = inhibition) at 10uM” value is listed as 24.6%.

For `Cc1nnsc1C(=O)N/N=C/c1ccc2ccccc2c1O`, the “hERG current change (%, negative = inhibition) at 10uM” value turned out to be 19.7%.

Regarding `Clc1cccc(CNCCc2ccc3c(c2)OCO3)c1.O=C(O)C(=O)O`, the “hERG current change (%, negative = inhibition) at 10uM” value is on record as -24%.

For `Cn1cnnc1SCC(=O)NN(c1ccccc1)c1ccccc1`, the “hERG current change (%, negative = inhibition) at 10uM” value is recorded as 28.6%.

For the compound `COc1cccc(C(c2nnnn2CS(=O)(=O)c2ccc(C)cc2)N2CCN(C)CC2)c1OC` (stereo not drawn), the “hERG current change (%, negative = inhibition) at 10uM” value is recorded as -22.5%.

For the compound `Cc1ccc(-c2cc(=O)c3cc(C)ccc3[nH]2)cc1`, the “hERG current change (%, negative = inhibition) at 10uM” value was 8.27%.

For `COc1ccc(NS(=O)(=O)c2cc3c(cc2C)N(C(C)=O)CCO3)cc1OC`, the “hERG current change (%, negative = inhibition) at 10uM” value is listed as 6.78%.

As for `Nc1cc(S(=O)(=O)Nc2ccc(Br)cc2)ccc1Cl`, the “hERG current change (%, negative = inhibition) at 10uM” value was -4.84%.

For `O=c1[nH]c(=O)n(C2CCCCC2)c(O)c1C=Nc1ccc(N2CCOCC2)cc1`, the “hERG current change (%, negative = inhibition) at 10uM” value is on record as -6.83%.

Turning to `Cc1c(C(=O)NCCN(C)C)oc2ccc(S(=O)(=O)N3CCC4(CC3)OCCO4)cc12`, the “hERG current change (%, negative = inhibition) at 10uM” value is given as -1.46%.

`COc1ccc(C(CNC(=O)COc2ccc(F)cc2Cl)N2CCCCC2)cc1` (stereo not drawn): the “hERG current change (%, negative = inhibition) at 10uM” value is -8.7%.

`COc1ccc(-c2ccnc3ncnn23)cc1`: the “hERG current change (%, negative = inhibition) at 10uM” value is reported as -9.61%.

Consider `COc1cccc(CN(CC(=O)NCC2CCCO2)C(=O)CCC(=O)Nc2cc(C)on2)c1` (stereo not drawn), for which the “hERG current change (%, negative = inhibition) at 10uM” value is listed as -0.822%.

Regarding `CC(Sc1nnc(-c2cccnc2)o1)C(=O)NC1CCCC1` (stereo not drawn), the “hERG current change (%, negative = inhibition) at 10uM” value was -5.03%.

Turning to `COc1ccc(/C=C/C(=O)c2cc(F)ccc2OC(=O)c2ccccc2C)cc1OC`, the “hERG current change (%, negative = inhibition) at 10uM” value came to 8.32%.

For `CC(C)(C)C(=O)CCN1C(=O)C2(OCCO2)c2ccccc21`, the “hERG current change (%, negative = inhibition) at 10uM” value is 1.4%.

Consider `CCC(=O)N1CCC2(CC1)Oc1ccc(Cl)cc1C(=O)C21CC(c2ccc(Cl)cc2)=NO1` (stereo not drawn), for which the “hERG current change (%, negative = inhibition) at 10uM” value is given as 5.24%.

As to `CC(NC(=O)CS(=O)(=O)c1ccccc1)c1ccccc1` (stereo not drawn), the “hERG current change (%, negative = inhibition) at 10uM” value is 13.5%.

On to `CCOC(=O)c1c(C)c(C(=O)NCc2ccccn2)c(C)n1C`, for which the “hERG current change (%, negative = inhibition) at 10uM” value is -4.67%.

Regarding `CSc1nc(-c2ccc(Cl)cc2)nn1C(=O)c1ccco1`, the “hERG current change (%, negative = inhibition) at 10uM” value is -2.97%.

Regarding `C=CCNC(=O)CCNS(=O)(=O)c1ccc(Br)cc1`, the “hERG current change (%, negative = inhibition) at 10uM” value is given as 9.96%.

With `Cc1cc2oc(C(=O)Nc3ccc(S(=O)(=O)Nc4onc(C)c4C)cc3)cc(=O)c2cc1Cl`, the “hERG current change (%, negative = inhibition) at 10uM” value turned out to be 24.6%.

On to `CCOC(=O)Cn1c(=O)oc2cc(S(=O)(=O)N3CCCC(C)C3)ccc21` (stereo not drawn), for which the “hERG current change (%, negative = inhibition) at 10uM” value was 19.1%.

In the case of `COc1ccc(-c2nnc(SCC(=O)N3CCCCC3)o2)cc1`, the “hERG current change (%, negative = inhibition) at 10uM” value was determined as 5.27%.

On to `CC(C)CCN(Cc1ccco1)S(=O)(=O)c1csc(C(N)=O)c1`, for which the “hERG current change (%, negative = inhibition) at 10uM” value is -14.9%.

As for `COCc1nnc(NS(=O)(=O)c2ccccc2)s1`, the “hERG current change (%, negative = inhibition) at 10uM” value is 5.23%.

`Cc1onc(-c2c(Cl)cccc2Cl)c1NC(=O)NNc1c(Cl)cncc1Cl`: the “hERG current change (%, negative = inhibition) at 10uM” value is reported as -2.17%.

Take `O=c1c(Cl)c(N2CCOCC2)cnn1-c1ncc(C(F)(F)F)cc1Cl`: the “hERG current change (%, negative = inhibition) at 10uM” value came out at 5.44%.

On to `COc1ccc(OC)c(NC(=O)CSc2ccc3ccccc3c2)c1`, for which the “hERG current change (%, negative = inhibition) at 10uM” value is reported as -7.3%.

On to `Cc1ccc(S(=O)(=O)Nc2cccnc2)c(C)c1C`, for which the “hERG current change (%, negative = inhibition) at 10uM” value worked out at 25.1%.

As for `COc1ccc(NC(C)=O)cc1S(=O)(=O)N1CCn2cccc2C1C` (stereo not drawn), the “hERG current change (%, negative = inhibition) at 10uM” value is listed as -2.68%.

Regarding `Cn1c(SCC(=O)NCc2cccs2)nnc1-c1ccco1`, the “hERG current change (%, negative = inhibition) at 10uM” value is listed as -11.3%.

Regarding `C/C(=N\NC(=O)C1COc2ccccc2O1)c1ccccn1` (stereo not drawn), the “hERG current change (%, negative = inhibition) at 10uM” value is 4.32%.

Regarding `COc1ccc(NC(=O)C2C3CC/C=C\CCC32)cc1` (stereo not drawn), the “hERG current change (%, negative = inhibition) at 10uM” value came out at 10.3%.

As for `O=C(N/N=C1\CCc2ccccc21)c1ccncc1`, the “hERG current change (%, negative = inhibition) at 10uM” value amounted to 13.7%.

Turning to `CCn1c(SCC(=O)Nc2sc(C)c(C)c2C#N)nnc1C1CC1`, the “hERG current change (%, negative = inhibition) at 10uM” value is given as -12%.

Consider `CC1CCCN(c2nc3c(c(=O)n(C)c(=O)n3C)n2Cc2ccccc2)C1` (stereo not drawn), for which the “hERG current change (%, negative = inhibition) at 10uM” value is listed as -40.9%.

Turning to `FC(F)(F)c1ccc(NCCc2ccccc2)nc1`, the “hERG current change (%, negative = inhibition) at 10uM” value is 9.41%.

The values above are taken from paper PMC4336329 (PLoS ONE, 2015).
